We go through 26 compounds from PubChem BioAssay AID1159614 (National Center for Advancing Translational Sciences (NCATS), 2016).

Hit rate of the full screen: of about 45,000 compounds, about 65 (0.1%) were called active. Calls follow the shape of the dose curve; as a rule, active = well fitted activation curve with a large enough effect; inconclusive = small, poorly fitted or top-dose-only effect; inactive = no such curve, though single readings can be large or run the other way. This is one part of the list.

UniProt P54803, sequence (P54803 whole entry, looked up): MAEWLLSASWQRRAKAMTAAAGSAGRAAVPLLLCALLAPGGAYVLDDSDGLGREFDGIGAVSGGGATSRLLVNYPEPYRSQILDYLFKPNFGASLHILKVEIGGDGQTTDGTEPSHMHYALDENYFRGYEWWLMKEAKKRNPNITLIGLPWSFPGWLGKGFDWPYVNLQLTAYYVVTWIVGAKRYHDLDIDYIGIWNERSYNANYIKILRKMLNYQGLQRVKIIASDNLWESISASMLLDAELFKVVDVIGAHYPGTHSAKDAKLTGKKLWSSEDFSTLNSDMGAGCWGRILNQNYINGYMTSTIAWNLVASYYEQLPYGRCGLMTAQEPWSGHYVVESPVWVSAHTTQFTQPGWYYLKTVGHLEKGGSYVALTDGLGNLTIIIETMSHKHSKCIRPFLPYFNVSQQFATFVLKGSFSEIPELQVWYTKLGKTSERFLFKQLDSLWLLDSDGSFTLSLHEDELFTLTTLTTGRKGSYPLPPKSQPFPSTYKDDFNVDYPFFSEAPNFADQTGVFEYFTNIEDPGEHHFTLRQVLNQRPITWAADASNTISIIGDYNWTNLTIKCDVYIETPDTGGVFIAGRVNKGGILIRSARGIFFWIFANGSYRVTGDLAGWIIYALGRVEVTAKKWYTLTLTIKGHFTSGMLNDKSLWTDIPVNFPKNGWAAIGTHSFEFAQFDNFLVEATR

The assay addresses Galactocerebrosidase (Homo sapiens) (UniProt P54803). Kind of assay: A Novel Cell-Based Assay to Identify Small Molecules for B -Galactocerebrosidase. Also: 0% is about no effect; nearly all actives have a fitted effect of over 65% in size. To be noted: 145M-Twi-hGALC-G270D cells (Twitcher mouse brain line with human GALC G270D), HMU-beta-Gal fluorescence, 48 h; series mostly up to 57.5 µM; activation: at the top concentration. In outline:
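Brain-derived Twitcher mouse 145M-Twi cells stably expressing human GALC-G270D or wild-type GALC, treated live, then residual GALC activity read by fluorescence of HMU-b-Gal substrate (0.1 mM final) in citrate-phosphate buffer pH 5.2 with sodium taurocholate. Signal increase indicates enhancement.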
As for `COc1cc(C)c(Cl)cc1S(=O)(=O)NCCc1c(C)[nH]c2ccccc12`, the “activation” value is inactive: -10.9%. With `COc1cccc(CNC(=O)CN2C(=O)N(c3cc(C)ccc3C)S(=O)(=O)c3ccccc32)c1OC` the figure was inactive: -6.61%; with `COc1ccc2oc(=O)c(-c3csc(/C(C#N)=C/c4ccc(F)cc4)n3)cc2c1`, inactive: -5.81%; with `COc1ccc(CNC(=O)CN(c2ccc(C)cc2)S(=O)(=O)c2c(C)n[nH]c2C)cc1`, inactive: 2%.

`CCOc1ccc(NC(=O)Cn2c(=O)n(-c3ccc(C)cc3)c(=O)c3cc(OC)c(OC)cc32)cc1`: the “activation” value is inactive: -14.6%. For `COc1ccccc1N1CCN(C(=O)C2CCN(S(=O)(=O)c3cnc[nH]3)CC2)CC1` the value was inactive: -11.7%; for `COc1ccc(CNC(=O)c2cc3c(-c4ccccc4F)nn(C)c3s2)c(OC)c1`, inactive: -9.21%; for `Brc1ccccc1-n1ncc2c1ncn1nc(Cc3ccccc3)nc21`, inactive: 0.339%. With `O=c1cc(CSc2ncn[nH]2)[nH]c2c(Cl)cccc12` the figure was inactive: 5.25%. For `Cc1ccc2c(c1)N(C(=O)CCC(=O)Nc1ccccc1Cl)CC(C)O2` (stereo unspecified) the value was inactive: -2.48%; for `O=C(Nc1ccc(-c2cc(C(F)(F)F)nn2-c2ccccc2)cc1)c1cccc(F)c1`, inactive: -40.7%. For `CCN1CCC(N(Cc2cccc(OC)c2)C(=O)Nc2cccc(C(F)(F)F)c2)CC1`, the “activation” value is inactive: -6.16%.

Regarding `CCN(CC)c1ccc(C(=O)NCc2ccc3c(c2)CCN3C(=O)c2ccccc2)cc1`, the “activation” value was inactive: -10.4%. With `CCOc1ccc(C2c3c(-c4ccc(C)cc4)n[nH]c3C(=O)N2c2ccc(Cl)cc2)cc1` (stereo unspecified), the “activation” value is inactive: -8.35%.

Turning to `CC1CCCN(C(=O)Cn2c(=O)oc3cc(S(=O)(=O)N4CCCCC4)ccc32)C1` (stereo unspecified), the “activation” value is inactive: -23.2%. For `COc1ccc(OC)c(Nc2nc(-c3ccc(C)cc3)nc3ccccc23)c1` the value was inactive: -23.2%. For `O=C(CC1N=C2c3ccccc3N=C(SCc3ccc(Cl)cc3)N2C1=O)NCCc1ccccc1` (stereo unspecified) the value was inactive: -26.4%; for `CCOC(=O)c1c(C)[nH]c(C)c1S(=O)(=O)NCC(=O)Nc1cccc(C(F)(F)F)c1`, inactive: -8.96%.

For the compound `O=C(CSc1nnc(NC(=O)NC2CCCCC2)s1)Nc1ccccc1F`, the “activation” value was inactive: -9.65%.

Regarding `COc1ccccc1NC(=O)c1cc(S(=O)(=O)N(C)C2CCCCC2)ccc1F`, the “activation” value was inactive: -5.61%. For the compound `Cc1ccc(NC(=O)C(Cc2ccccc2)NS(=O)(=O)c2ccc3c(c2)oc(=O)n3C)c(Cl)c1` (stereo unspecified), the “activation” value is inactive: -2.98%. For `COc1cc(C=C2CCC/C(=C\c3ccc(O)c(OC)c3)C2=O)ccc1O` the value was inactive: -16.1%; for `CCOC(=O)N1CCc2c(sc3c2c(=O)n(CCc2ccccc2)c(=O)n3Cc2cc(C)ccc2C)C1`, inactive: -1.55%. Take `COCCNC(=O)Cn1cc(S(=O)(=O)Cc2ccccc2Cl)c2ccccc21`: the “activation” value is inactive: -8.47%. For `CC1=C(C(=O)Nc2ccccc2C)C(c2cccnc2)n2nc(SCc3ccccc3)nc2N1` (stereo unspecified) the value was inactive: -25.7%.

Regarding `COc1ccc(-n2c(=O)c3sc4ccccc4c3n(CC(=O)Nc3cccc(C)c3)c2=O)cc1`, the “activation” value is inactive: -6.47%.
